The values below come from the supplement of paper PMC11417369.

Some of the results follow.

This test concerns PfSIP2 AP2 domain 1 (GST-tagged). Description: gcPBM binding intensity (ln(normalized median fluorescence intensity)); higher = stronger DNA binding. In short, it runs like this:
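The binding buffer was 1× PBS containing 1% milk, 0.2 mg/ml BSA, 0.5% salmon testes DNA and 0.03% Triton X-100. In it, GST-tagged P. falciparum DNA-binding domains expressed in E. coli were applied for 1 h to an Agilent 4 × 180k array of primer-extended double-stranded 36-bp intergenic genomic probes plus negative controls. Binding intensity, read with Alexa488 anti-GST antibody and a 488 nm scan, is the highest Masliner-normalised natural-log median intensity across replicate spots of either probe orientation.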
Regarding AAAAGTCTCTTTTTAGTGCACATTTTATTTAAATAT, the “gcPBM binding intensity (ln)” value turned out to be 10.2.
With “CAGATAAGGTGAAGCTGTACAAAAATGTTTTATAAC [XGTACX_site6783]”, the “gcPBM binding intensity (ln)” value stood at 7.18.
With “TCTAATTATCACATTGCACACACATTTCCTTTTACA [CACACA_site9140]”, the “gcPBM binding intensity (ln)” value was found to be 7.3.
Next, “TAATTAATTTATGTAACACACATTGTTGATTCAATA [CACACA_site1098]”: 6.93; “TTATACTGTATAGTCGCACACAAAAATATAAAATAT [CACACA_site3869]”: 7.11; “AATACACCCAGACACACACACAAAAAAAAAAAAAAA [CACACA_site513]”: 7.29.
On to “ATATATATATTAAATACACACATTTTTGATTAGGTT [CACACA_site3119]”, for which the “gcPBM binding intensity (ln)” value turned out to be 8.9.
The value for “AAAAGAGAAATGGGCACACACACACCGATTATATAT [CACACA_site4942]” was 7.13; that for “TTTGAATCCTTATATACACACATTATGTAATATTAT [CACACA_site561]” was 7.1.
Next, “AATATAAAAATGTTTACACACACACCCAAATATATT [CACACA_site2511]”: 7.13.
Regarding “AGAATTACTTAAAAAAGTACATAAAATTATTTAAAA [XGTACX_site2205]”, the “gcPBM binding intensity (ln)” value turned out to be 6.69.
Next, “ATTACATTTTTAATGCGTACTAAAAATGTATATAAG [XGTACX_site6384]”: 7.11.
Next, “TTATTATCTCTTGTCATTATTATATACTAAGAAGTA [CACACA_negctrl_site410]”: 6.88; “AATATGAAATATATTACACACATTTATATGTTGAAA [CACACA_site1427]”: 6.87.
“TTTATTCCAGTATTCACACACGAATAACCACATAAC [CACACA_site5104]”: the “gcPBM binding intensity (ln)” value was found to be 7.12.
Take “ATAATTCTTTATTATAGTACACAAACTTTCAAAACA [XGTACX_site3597]”: the “gcPBM binding intensity (ln)” value was determined as 7.06.
For the sequence “CTATACATATTATATAGTACTTTATTATTATGACTA [XGTACX_site1382]”, the “gcPBM binding intensity (ln)” value is 6.74.
Next, “TATATAAGAGGAAAAAGTACAGAAAAACAAAGAGAA [XGTACX_site2926]”: 7.54; “TGTATTTATAGCAATACACACATAACAATAAATATA [CACACA_site3328]”: 6.98.
For “ACAAAACATATATTCTGTACATATATAATGGTGACT [XGTACX_site6796]”, the “gcPBM binding intensity (ln)” value was determined as 7.1.
In the case of “TTTATATCTTATTATAGGAAAATGAATATTTTCTCT [TGCATGCA_negctrl_site478]”, the “gcPBM binding intensity (ln)” value is 6.64.
The value for “AAGAAAATATAAATATGTACTTAATAATTTATTTAT [XGTACX_site8100]” was 6.78; that for “AAAAAAGAGGGATACACACAAACATATATATATATA [CACACA_site2243]” was 9.24.
“AAAATAAAAAGAAATTGTACGTATAATAATATATTT [XGTACX_site7593]”: the “gcPBM binding intensity (ln)” value amounted to 6.97.
The value for “TTTATTTTAAAATTTACACACAAAAGGATTTATAGA [CACACA_site2338]” was 7.01; that for “TATATTAATTAACAGTGTACAAAAAAAAATAAAAAA [XGTACX_site3702]” was 7.
For “TATTAAAATAACATACGTACATAAGTATATAAAAAA [XGTACX_site1769]”, the “gcPBM binding intensity (ln)” value was determined as 6.99.
Next, “AGGATACACGGACACACACACATATATATATATATA [CACACA_site4654]”: 9.57; “TGTATAAATAAATGCGTACACACTAATAAAAAAAAA [CACACA_site858]”: 7.33; “TTATGTAAATAATTTTGTACTTAAATTATTATATAA [XGTACX_site1491]”: 6.72.
As for “CAACTTTTTGAAAATTGTACATGACATATATATATA [XGTACX_site260]”, the “gcPBM binding intensity (ln)” value is 9.04.
The value for “AAAAAAAATATGATGAGTACACAATAATACATGCAA [XGTACX_site6999]” was 7.17.
Next, GTGGTTATATATTAAGTGCATATTATAATTTTAAAC: 8.63; “AATATCTAAAATGTGTGTACATAATATTTTTAATAT [XGTACX_site3831]”: 7.1; “ATAGATAAAAAATTATTTATTTAGAATTTTTATGTA [CACACA_negctrl_site400]”: 6.77.
The value for “TGTCTTTATATATATTTATTTTTTAGTATTACATAA [CACACA_negctrl_site21]” was 7.33; that for “ATGGAATATTTCATGATTTTTTTAATTTTTTTATTG [XGTACX_negctrl_site55]” was 6.6; that for “ATTTTCATATTTTTATGTACATATTATAAGAATATA [XGTACX_site3691]” was 6.97.
“TATCTTTTTTTTAATACACACAAATTTATGAAAGTA [CACACA_site7879]”: the “gcPBM binding intensity (ln)” value stood at 6.99.
Turning to “CACGCACGCACATACACACACATACACATATAAATA [CACACA_site6907]”, the “gcPBM binding intensity (ln)” value was 7.69.
With “ATGTTGTTCATAAATATATTATTTTTAAATGTACAA [GTGCAC_negctrl_site507]”, the “gcPBM binding intensity (ln)” value came to 6.94.
Next, “GTATTTAGATGATTAACACACATATGTGTATTAATA [CACACA_site6733]”: 7.11.
With “ATATATATTATTGAATGTACATAATTATTTAATAGT [XGTACX_site4971]”, the “gcPBM binding intensity (ln)” value worked out at 7.3.
The value for “ATATATTCACGTTAATGTACACATAATAAATTATAT [XGTACX_site5481]” was 7.3; that for “AATTATATTGGTTGTAGTACTAAAAGTAAGTTAATG [XGTACX_site33]” was 7.26; that for “TATTCACTGATATGTTGTACATAAAAAAAATTAAAT [XGTACX_site6128]” was 7.49.
Consider “TGAAAAAAGAAAAATACACACATATAATATAATATA [CACACA_site2255]”, for which the “gcPBM binding intensity (ln)” value is 6.74.
The value for “TTTTTTATATTGATATTTATTAAATATGAAATGTTA [GTGCAC_negctrl_site405]” was 7.03.
As to “AATAAAATATAAGGGGGTACGGAGAAAGGATACTAT [XGTACX_site7733]”, the “gcPBM binding intensity (ln)” value came out at 7.2.
As for “TTATATAAGATATTTCGTACACATTCAAAAATTATG [XGTACX_site7375]”, the “gcPBM binding intensity (ln)” value is 6.96.
Next, “AAAAAAAAAAAAAAAAGTACATATATTATATATATA [XGTACX_site2983]”: 8.21; “CATACACCCCAACACACACACACACCCATATATAAT [CACACA_site8097]”: 7.33; “TTATATTTTTACAAGAGTACATATATATATATATAT [XGTACX_site5383]”: 9.27.
Regarding “GTGCAATATTTATTTTGTACATATTTATCAATAAAC [XGTACX_site8297]”, the “gcPBM binding intensity (ln)” value was found to be 8.9.
As to “ACATCGATTTATATTCTGCACTGAAGAAACTACAAC [GTGCAC_site9967]”, the “gcPBM binding intensity (ln)” value was 7.76.
For “ATTAAATATATTAAATGTACATAATATATATATATA [XGTACX_site5032]”, the “gcPBM binding intensity (ln)” value came out at 8.57.
Consider “TCAAACCAGTTGATGTGTACACATATAGTAATAATT [XGTACX_site6014]”, for which the “gcPBM binding intensity (ln)” value was 7.22.
